According to paper PMC8892811:
Results are given in words; binding and its absence hold for the method and conditions named. In cells and extracts the contact can be indirect. Some results given as binding are weak or reduced against the parent protein; the word gives no strength. For some of these results: Sequences can lack the tags named with a protein.

Chains of the proteins cited; added tags and fusions are not shown.
UniProt Q9CW03: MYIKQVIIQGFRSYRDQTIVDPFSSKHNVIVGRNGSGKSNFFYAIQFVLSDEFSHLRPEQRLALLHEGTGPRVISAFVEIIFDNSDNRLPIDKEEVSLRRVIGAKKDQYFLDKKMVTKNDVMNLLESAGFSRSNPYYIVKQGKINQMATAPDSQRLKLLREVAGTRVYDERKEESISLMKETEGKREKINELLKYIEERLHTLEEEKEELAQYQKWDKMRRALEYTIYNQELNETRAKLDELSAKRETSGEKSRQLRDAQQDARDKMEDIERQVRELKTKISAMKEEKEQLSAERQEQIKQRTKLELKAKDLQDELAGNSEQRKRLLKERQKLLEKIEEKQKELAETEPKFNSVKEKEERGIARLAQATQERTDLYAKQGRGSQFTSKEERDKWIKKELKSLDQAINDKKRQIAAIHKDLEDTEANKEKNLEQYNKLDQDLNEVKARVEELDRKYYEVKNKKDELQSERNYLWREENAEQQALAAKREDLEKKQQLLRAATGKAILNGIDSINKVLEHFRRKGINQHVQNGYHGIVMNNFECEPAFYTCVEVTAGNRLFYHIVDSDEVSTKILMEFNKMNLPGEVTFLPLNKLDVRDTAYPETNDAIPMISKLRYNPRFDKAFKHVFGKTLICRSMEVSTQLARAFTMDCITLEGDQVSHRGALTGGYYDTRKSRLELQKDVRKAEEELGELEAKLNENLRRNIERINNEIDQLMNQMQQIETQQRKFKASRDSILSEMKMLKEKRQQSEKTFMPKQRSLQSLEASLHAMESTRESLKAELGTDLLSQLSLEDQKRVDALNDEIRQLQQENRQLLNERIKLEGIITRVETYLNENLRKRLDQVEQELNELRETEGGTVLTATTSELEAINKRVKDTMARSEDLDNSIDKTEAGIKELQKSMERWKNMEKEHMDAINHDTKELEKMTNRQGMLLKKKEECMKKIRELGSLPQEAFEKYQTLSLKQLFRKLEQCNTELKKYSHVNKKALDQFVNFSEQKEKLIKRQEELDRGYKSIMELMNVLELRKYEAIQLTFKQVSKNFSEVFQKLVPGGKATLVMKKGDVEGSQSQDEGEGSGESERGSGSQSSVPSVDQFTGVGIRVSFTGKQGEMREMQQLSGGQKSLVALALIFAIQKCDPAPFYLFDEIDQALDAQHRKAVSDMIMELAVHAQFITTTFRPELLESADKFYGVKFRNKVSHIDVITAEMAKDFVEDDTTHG
UniProt Q6ZQK0: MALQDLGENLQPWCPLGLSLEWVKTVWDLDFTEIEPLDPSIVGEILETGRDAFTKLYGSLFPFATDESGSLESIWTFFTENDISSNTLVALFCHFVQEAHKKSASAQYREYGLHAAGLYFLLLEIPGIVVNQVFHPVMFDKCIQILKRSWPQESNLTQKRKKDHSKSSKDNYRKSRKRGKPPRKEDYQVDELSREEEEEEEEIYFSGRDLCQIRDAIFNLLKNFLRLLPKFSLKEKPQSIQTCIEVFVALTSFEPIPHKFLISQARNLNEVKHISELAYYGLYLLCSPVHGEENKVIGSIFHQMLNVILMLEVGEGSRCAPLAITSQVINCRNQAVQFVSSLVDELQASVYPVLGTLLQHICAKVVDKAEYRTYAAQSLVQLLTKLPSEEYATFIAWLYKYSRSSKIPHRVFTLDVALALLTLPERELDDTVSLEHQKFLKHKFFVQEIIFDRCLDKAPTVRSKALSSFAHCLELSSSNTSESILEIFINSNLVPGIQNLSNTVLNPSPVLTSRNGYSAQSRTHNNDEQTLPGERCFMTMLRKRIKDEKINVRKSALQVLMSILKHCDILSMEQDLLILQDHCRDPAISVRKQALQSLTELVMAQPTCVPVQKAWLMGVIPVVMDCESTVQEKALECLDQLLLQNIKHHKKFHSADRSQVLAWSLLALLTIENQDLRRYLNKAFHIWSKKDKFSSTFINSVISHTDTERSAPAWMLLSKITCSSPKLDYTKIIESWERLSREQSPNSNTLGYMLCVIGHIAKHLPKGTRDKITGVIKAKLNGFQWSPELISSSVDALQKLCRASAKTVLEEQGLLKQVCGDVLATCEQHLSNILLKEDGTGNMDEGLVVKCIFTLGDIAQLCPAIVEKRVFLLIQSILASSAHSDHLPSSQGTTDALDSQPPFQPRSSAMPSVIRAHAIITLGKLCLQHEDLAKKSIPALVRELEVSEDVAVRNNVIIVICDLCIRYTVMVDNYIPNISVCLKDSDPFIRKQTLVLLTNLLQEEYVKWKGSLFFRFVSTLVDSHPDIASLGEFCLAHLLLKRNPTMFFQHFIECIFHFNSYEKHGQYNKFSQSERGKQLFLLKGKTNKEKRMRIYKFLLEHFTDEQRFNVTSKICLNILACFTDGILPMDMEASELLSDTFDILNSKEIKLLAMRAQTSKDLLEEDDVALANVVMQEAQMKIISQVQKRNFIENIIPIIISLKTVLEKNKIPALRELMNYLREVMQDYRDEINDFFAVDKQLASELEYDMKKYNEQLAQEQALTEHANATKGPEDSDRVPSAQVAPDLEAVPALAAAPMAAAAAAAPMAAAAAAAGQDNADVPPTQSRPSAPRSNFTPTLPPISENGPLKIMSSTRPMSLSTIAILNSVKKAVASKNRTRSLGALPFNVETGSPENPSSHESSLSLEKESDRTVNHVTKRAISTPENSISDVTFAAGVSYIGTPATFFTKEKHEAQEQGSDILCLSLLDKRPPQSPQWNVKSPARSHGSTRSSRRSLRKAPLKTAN

How the values were obtained:
[1] = target: T1, STAG3 (mouse (endogenous in J1 ESCs)) (UniProt O70576); assay: co-IP; whole-cell extracts of ESCs (700 μg lysate; lysis buffer 50 mM Tris-HCl pH 7.6, 250 mM NaCl, 0.05% NP40) incubated with 1 μg anti-cohesin antibody (SMC3, RAD21, REC8, STAG1, STAG2, STAG3) overnight, protein A/G agarose 3 h at 4 °C, western blot
T1 sequence: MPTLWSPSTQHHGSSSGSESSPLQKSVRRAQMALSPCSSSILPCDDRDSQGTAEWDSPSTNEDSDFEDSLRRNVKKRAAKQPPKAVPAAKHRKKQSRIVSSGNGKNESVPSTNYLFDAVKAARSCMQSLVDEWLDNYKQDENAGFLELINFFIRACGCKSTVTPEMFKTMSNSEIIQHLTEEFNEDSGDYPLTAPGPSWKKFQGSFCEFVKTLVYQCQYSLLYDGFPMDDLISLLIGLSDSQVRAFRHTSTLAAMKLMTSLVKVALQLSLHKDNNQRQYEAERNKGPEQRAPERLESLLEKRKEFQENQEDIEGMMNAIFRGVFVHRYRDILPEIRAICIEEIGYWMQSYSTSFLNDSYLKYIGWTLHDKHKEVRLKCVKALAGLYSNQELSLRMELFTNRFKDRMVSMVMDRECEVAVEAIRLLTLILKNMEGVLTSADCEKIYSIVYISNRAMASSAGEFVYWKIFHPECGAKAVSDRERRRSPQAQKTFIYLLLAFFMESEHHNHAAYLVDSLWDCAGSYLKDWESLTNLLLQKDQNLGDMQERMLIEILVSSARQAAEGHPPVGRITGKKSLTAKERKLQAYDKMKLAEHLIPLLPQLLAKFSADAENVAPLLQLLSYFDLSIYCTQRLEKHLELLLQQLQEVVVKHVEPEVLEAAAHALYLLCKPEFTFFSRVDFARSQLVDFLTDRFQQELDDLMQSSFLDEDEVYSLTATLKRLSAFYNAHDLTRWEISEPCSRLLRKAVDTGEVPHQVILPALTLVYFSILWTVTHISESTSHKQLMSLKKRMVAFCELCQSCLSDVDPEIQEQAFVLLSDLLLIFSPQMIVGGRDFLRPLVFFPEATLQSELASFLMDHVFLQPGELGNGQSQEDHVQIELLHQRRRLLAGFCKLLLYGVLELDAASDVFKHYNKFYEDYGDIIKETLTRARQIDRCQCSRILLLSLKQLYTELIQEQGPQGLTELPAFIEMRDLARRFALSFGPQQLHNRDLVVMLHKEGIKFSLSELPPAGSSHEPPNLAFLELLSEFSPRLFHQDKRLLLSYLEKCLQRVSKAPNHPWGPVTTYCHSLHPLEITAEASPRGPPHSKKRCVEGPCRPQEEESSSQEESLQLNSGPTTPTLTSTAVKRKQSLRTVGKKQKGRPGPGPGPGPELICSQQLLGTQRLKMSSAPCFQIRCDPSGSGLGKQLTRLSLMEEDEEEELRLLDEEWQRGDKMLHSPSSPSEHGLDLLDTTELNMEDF

[2] = target: T2, REC8 (mouse (endogenous in J1 ESCs)) (UniProt Q8C5S7); assay: as above
T2 sequence: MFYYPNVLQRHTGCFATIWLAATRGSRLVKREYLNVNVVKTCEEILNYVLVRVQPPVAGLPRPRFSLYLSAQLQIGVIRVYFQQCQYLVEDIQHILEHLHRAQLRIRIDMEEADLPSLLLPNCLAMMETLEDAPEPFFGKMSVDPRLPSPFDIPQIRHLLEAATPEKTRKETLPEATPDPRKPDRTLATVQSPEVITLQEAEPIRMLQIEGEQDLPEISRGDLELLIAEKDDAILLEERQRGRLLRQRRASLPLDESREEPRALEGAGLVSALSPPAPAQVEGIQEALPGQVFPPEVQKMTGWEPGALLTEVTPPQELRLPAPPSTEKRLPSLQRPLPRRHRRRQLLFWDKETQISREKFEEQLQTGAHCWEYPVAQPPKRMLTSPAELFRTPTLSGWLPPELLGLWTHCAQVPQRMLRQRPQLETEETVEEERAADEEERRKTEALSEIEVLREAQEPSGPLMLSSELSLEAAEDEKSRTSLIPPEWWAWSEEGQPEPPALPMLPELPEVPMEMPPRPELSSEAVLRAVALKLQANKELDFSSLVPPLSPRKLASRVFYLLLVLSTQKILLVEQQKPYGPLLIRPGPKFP

[3] = target: T3, RAD21 (mouse (endogenous in J1 ESCs)) (UniProt Q61550); assay: as above
T3 sequence: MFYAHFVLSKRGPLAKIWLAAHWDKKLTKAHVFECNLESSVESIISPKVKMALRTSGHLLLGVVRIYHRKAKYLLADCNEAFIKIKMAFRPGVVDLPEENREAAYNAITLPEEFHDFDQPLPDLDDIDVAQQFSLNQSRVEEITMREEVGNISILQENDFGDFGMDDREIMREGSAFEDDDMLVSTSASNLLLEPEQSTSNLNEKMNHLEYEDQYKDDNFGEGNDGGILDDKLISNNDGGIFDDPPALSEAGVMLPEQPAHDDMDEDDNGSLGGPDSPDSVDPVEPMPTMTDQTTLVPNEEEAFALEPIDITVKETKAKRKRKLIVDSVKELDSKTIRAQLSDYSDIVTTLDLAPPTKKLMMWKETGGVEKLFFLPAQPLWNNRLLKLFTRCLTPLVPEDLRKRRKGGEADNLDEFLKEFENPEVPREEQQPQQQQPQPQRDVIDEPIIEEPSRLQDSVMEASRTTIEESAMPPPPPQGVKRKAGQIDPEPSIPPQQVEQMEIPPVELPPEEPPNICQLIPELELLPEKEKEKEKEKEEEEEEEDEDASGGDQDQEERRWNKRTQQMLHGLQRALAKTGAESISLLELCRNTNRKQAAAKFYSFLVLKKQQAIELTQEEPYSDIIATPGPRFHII

[4] = target: T4, retinoblastoma-associated protein (RB) (mouse (endogenous in J1 ESCs)) (UniProt P13405); assay: co-IP; immunoprecipitation of RB from ESC lysates followed by western blotting of CAP-D3; cells treated with siCtrl or siRNA against cohesin components (knockdown increased the interaction)
T4 sequence: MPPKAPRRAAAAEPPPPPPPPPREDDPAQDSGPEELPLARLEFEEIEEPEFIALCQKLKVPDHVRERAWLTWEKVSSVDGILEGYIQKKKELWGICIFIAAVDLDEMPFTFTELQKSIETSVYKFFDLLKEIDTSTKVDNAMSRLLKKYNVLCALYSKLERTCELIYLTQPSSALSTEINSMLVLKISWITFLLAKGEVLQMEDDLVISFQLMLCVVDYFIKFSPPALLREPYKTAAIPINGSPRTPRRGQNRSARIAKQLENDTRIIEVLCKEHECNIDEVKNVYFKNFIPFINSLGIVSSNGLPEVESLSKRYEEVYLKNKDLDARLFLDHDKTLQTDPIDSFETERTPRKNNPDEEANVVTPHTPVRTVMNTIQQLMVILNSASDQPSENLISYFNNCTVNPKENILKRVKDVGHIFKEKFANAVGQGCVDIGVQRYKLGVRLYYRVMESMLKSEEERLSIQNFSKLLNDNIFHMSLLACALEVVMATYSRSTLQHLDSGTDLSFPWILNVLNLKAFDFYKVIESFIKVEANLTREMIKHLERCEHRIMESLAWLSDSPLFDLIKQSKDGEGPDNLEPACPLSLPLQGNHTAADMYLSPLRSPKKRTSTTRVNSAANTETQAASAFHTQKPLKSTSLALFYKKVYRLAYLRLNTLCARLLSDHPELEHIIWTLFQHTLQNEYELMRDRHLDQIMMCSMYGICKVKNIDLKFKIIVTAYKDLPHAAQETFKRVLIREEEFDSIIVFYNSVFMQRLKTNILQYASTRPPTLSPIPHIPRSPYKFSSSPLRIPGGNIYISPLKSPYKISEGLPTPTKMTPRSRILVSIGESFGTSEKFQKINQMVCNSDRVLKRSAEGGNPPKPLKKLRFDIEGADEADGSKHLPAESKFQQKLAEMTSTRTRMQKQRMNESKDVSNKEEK

Row | Substance | binding [1] | binding [2] | binding [3] | binding [4]
1 | SMC3 (from UniProt Q9CW03 1-1217) | binds | binds | binds | 
2 | condensin II complex subunit D3 (CAP-D3) (from UniProt Q6ZQK0 1-1506) |  |  |  | binds
